Measured values: PubChem BioAssay AID1671194 (National Center for Advancing Translational Sciences (NCATS), 2021)
Hit rate of the full screen: of about 140,000 compounds, about 240 (0.17%) were called active. This list was built around the results that the source calls inconclusive (neither active nor inactive); the mix of calls is not that of the screen. The call rests on the fitted dose curve; in most records, active means well fitted inhibition curve with a large enough effect; inconclusive means small, poorly fitted or top-dose-only effect; inactive means no such curve, though single readings can be large or run the other way. A potency beside an inconclusive call is a rough fit, not a confirmed value.

experiment: Primary qHTS assay for inhibitors of alpha-synuclein gene (SNCA) expression; details: HEK-293 SNCA-luciferase knock-in, luminescence, 24 h; series mostly up to 57.2 µM; further: nearly all actives have a fitted effect of over 45% in size
Potency means the concentration at half of the fitted maximal effect; tags describe the fitted curve by direction and shape.

Structure (SMILES)	Potency
Cc1ccc(S(=O)(=O)N2CCCC(c3nc4c(nnn4Cc4ccc(OC(F)(F)F)cc4)c(=O)[nH]3)C2)cc1 (stereo not drawn)	inconclusive: 31.6 µM [inhibitor, single point]
Cc1ccc(C)c(OCCSc2nc3ccccc3n2CC(=O)N2CCOCC2)c1	inconclusive: 3.55 µM [inhibitor, single point]
CCc1cccc(CC)c1NC(=O)c1cc(S(=O)(=O)N2CCc3ccccc32)cn1C	inconclusive: 0.178 µM [inhibitor, partial curve, poor fit]
COc1ccc(-n2c(C)c([N+](=O)[O-])c3ccc(O)cc32)cc1	inconclusive: 5.41 µM [inhibitor, full curve, poor fit]
O=C(C1CCCN(c2nccc(Nc3ccccc3F)n2)C1)N1CCCC1 (stereo not drawn)	inactive
Cc1cn2nc(C(=O)NCc3ccccc3)cc2c(N(C)Cc2ccccc2)n1	inactive
Cc1ccc(Nc2ccnc(N3CCCC3C(=O)N3CCC(Cc4ccccc4)CC3)n2)cc1 (stereo not drawn)	inconclusive: 39.8 µM [inhibitor, single point]
NC(=O)CNC(=O)C1=C[C@@H](Oc2cc(F)ccc2Br)[C@H](O)[C@H](O)C1	inconclusive: 7.08 µM [inhibitor, partial curve, poor fit]
CSc1ccc(CNC(=O)C2CCN(c3cc(C(F)(F)F)ncn3)CC2)cc1	inconclusive: 8.91 µM [inhibitor, full curve]
CCCN(CCC)CCCNC(=O)Cn1ncc2c3ccccc3n(Cc3ccc(F)cc3)c2c1=O	inconclusive: 39.8 µM [inhibitor, single point]
O=C(NC1CCN(Cc2cccc(-c3cccs3)c2)CC1)c1cccc(Cl)c1	inconclusive: 39.8 µM [inhibitor, single point]
Cc1ccccc1NC(=O)c1sc2nc(-c3ccncc3)ccc2c1N	inconclusive: 39.8 µM [inhibitor, single point]
NC(=O)NCc1cn(C2CCN(Cc3cc4ccccc4s3)CC2)nn1	inactive
COCCn1nc2n(c1=O)CCN(C(=O)c1cncc(Br)c1)CC2	inactive
CC(C)(CC(=O)OCC(=O)Nc1ccc(F)c(Cl)c1)CC1=NS(=O)(=O)c2ccccc2N1	inconclusive: 12.6 µM [inhibitor, single point]
COc1cc(=O)n2c(c1C(=O)Nc1cccc(Cl)c1C)CCCC2	inconclusive: 3.16 µM [inhibitor, single point]
O=C(COc1ccccc1)N[C@H]1CO[C@H]2[C@@H]1OC[C@@H]2Nc1nccc(-c2ccco2)n1	inactive
CC(C)(C)c1ccc(-c2cc(C[C@H]3CNCC[C@H]3CC(=O)N3CCN(Cc4ccccc4)CC3)no2)cc1	inconclusive: 39.8 µM [inhibitor, single point]
COc1ccccc1Nc1ccnc(N2CCN(C(=O)NC3CCCC3)CC2)n1	inactive
CCCC(=O)OC1=CN(Cc2ccccc2)S(=O)(=O)c2ccccc21	inconclusive: 22.4 µM [inhibitor, single point]
Cc1noc2c(-c3cccc(O)c3)cc(-c3ccccc3)nc12	inconclusive: 5.62 µM [inhibitor, full curve, poor fit]
NCCC(=O)NC1CCCc2c1cnn2-c1ccc(F)cc1F (stereo not drawn)	inconclusive: 1.58 µM [inhibitor, single point]
CCOc1ccc(C2Cn3nnc(-c4nc(CC)no4)c3CO2)cc1 (stereo not drawn)	inconclusive: 10 µM [inhibitor, partial curve, poor fit]

Structure (SMILES)	Potency
Brc1c(Br)c(Br)c2n[nH]nc2c1Br	inactive
COCCN1CCC2(C1)CN(C)c1ccc(C(=O)Nc3ccc(OC)cc3)cc12 (stereo not drawn)	inactive
Cn1ncc2c(C(=O)NCc3ccc(F)cc3)cc(-c3ccc(F)cc3)nc21	inconclusive: 39.8 µM [inhibitor, single point]
Cc1cc(NC(=O)N2C[C@@H](F)C[C@H]2C(=O)N2CCCCC2)ccc1Br	inconclusive: 25.1 µM [inhibitor, single point]
CCC(=O)N1N=C(c2ccc(OC)cc2)CC1c1cn(-c2ccccc2)nc1-c1cccs1 (stereo not drawn)	inconclusive: 17.8 µM [inhibitor, partial curve, poor fit]
CC1(C)CC2CC(C)(CN2C(=O)CC(c2ccccc2Cl)c2c[nH]c3ccccc23)C1 (stereo not drawn)	inactive
Cc1ccc(C)c(N2CCN(c3ccc(NC(=O)c4cccs4)cc3C(=O)O)CC2)c1	inactive
COc1cccc(CN2C[C@@H]3C(=O)N(CCN4CCc5ccccc5C4)C(=O)[C@@H]3C2)c1	inconclusive: 39.8 µM [inhibitor, single point]
CCOC(=O)c1ccc(N2C(=O)c3n[nH]c(-c4cccs4)c3C2c2cccc(F)c2)cc1 (stereo not drawn)	inconclusive: 39.8 µM [inhibitor, single point]
CC(C)C[C@@H]1N[C@H](C(=O)NC(C)C)Cc2cn(Cc3ccncc3)c3cccc1c23	inconclusive: 56.2 µM [inhibitor, single point]
Oc1ccc(CN2CC(CNc3ccccc3)C3(C2)CN(c2ccccc2)C3)cc1 (stereo not drawn)	inconclusive: 22.4 µM [inhibitor, single point]
CS(=O)(=O)c1ccc(CN2CCOC[C@H]2c2ncc(-c3ccncc3)[nH]2)cc1	inconclusive: 3.98 µM [inhibitor, partial curve, poor fit]
CCOC(=O)CCNC(=O)N1CCc2c(nc(-c3ccccc3)[nH]c2=O)C1	inactive
Cc1cn2nc(C(=O)NCc3ccc(C(F)(F)F)cc3)cc2c(N2CCCC2)n1	inactive
Cc1cccc(-c2noc([C@@H]3Cc4nc[nH]c4CN3C(=O)NC(C)C)n2)c1	inactive
CCN(CC)c1ccc(CNC(=O)c2cc3c(s2)CN(C(C)C)C3)cc1	inconclusive: 8.91 µM [inhibitor, single point]
Cc1cc(N2CCCCC2)nc2ccc(NC(=O)c3cccc(F)c3)cc12	inactive
Oc1ccccc1CN1CCNc2cc(Nc3ccccc3)ncc2C1	inactive
Nc1c(-c2nc(-c3ccc(Cl)cc3)cs2)c2ccccn2c1C(=O)c1ccc2c(c1)OCO2	inactive
O=C1OCC2(CCN(Cc3ccc4c(c3)CCO4)C2)N1Cc1ccccc1 (stereo not drawn)	inactive
CCCCc1nc2ccccc2n2c(-c3ccc(C)cc3)c3c(=O)n(C)c(=O)n(C)c3c12	inconclusive: 14.1 µM [inhibitor, partial curve]
CN1C(=O)CS(=O)(=O)C12CCN(C(=O)COc1ccc(Cl)cc1)CC2	inactive
C[S+](=O)([O-])c1ccc(-c2ncc3c(n2)OCCN(c2ccccc2)C3=O)cc1	inactive

Structure (SMILES)	Potency
O=S(=O)(c1cccc(C(F)(F)F)c1)n1c(/C=C/c2ccccc2)nc2ccccc21	inactive
COc1ccc(NC(=O)c2ccc3c(c2)N(C)C2CCCCCN2C3=O)cc1OC (stereo not drawn)	inactive
Cc1cccc(N2C(=O)CSC23C(=O)N(Cc2cccc(C(F)(F)F)c2)c2ccccc23)c1 (stereo not drawn)	inconclusive: 0.708 µM [inhibitor, partial curve, poor fit]
COCCCNC(=O)CSc1c2c(nc3ccc(Cl)cc13)CCCC2	inconclusive: 39.8 µM [inhibitor, single point]
C=Cc1ccc(CSc2nc(-c3ccccc3Cl)nc3c2Cc2c(CO)cnc(C)c2O3)cc1	inconclusive: 39.8 µM [inhibitor, single point]
Cc1nc(N2CCCC2)c2c(C(=O)N3CCN(c4cccc(Cl)c4)CC3)c(C)oc2n1	inconclusive: 39.8 µM [inhibitor, single point]
COc1ccc(-c2noc([C@@H]3C[C@@H](O)CN3Cc3ccccn3)n2)cc1	inactive
COc1cccc(C(=O)Nc2cc(C3CCCC3)nn2C)c1	inactive
O=C(Cn1nc2c(cc1=O)CCCCC2)Nc1ccc(Br)cc1	inconclusive: 3.98 µM [inhibitor, partial curve]
Cc1cc(C)cc(-n2ccn(CC(=O)Nc3ccccc3C(F)(F)F)c(=O)c2=O)c1	inconclusive: 31.6 µM [inhibitor, partial curve, poor fit]
Cc1cc2cc(-c3c(C)noc3C)nc(-c3cccc([S+](C)(=O)[O-])c3)c2o1	inactive
O=c1cnc2cnc(Nc3ccccc3)nc2n1C[C@H]1CCCO1	inconclusive: 14.1 µM [inhibitor, partial curve, poor fit]
Cc1ccc(Cl)cc1NC(=O)CSC1=Nc2ccccc2C2=NC(Cc3ccccc3)C(=O)N12 (stereo not drawn)	inconclusive: 10 µM [inhibitor, partial curve, poor fit]
CN1c2cc(C(=O)Nc3ccc4c(c3)CCC4)ccc2C(=O)N2CCCCC21 (stereo not drawn)	inactive
COc1ccc(NC(=O)Cn2nc(-c3ccncc3)ccc2=O)cc1Cl	inconclusive: 2.51 µM [inhibitor, full curve]
CCOC(=O)C1CCN(CC(=O)N2CCCc3c2c(=O)oc2ccc(OCc4ccccc4)cc32)CC1	inconclusive: 31.6 µM [inhibitor, partial curve, poor fit]
CC(=O)Oc1cccc(O)c1	inactive
CCCn1ncnc1C(C)NC(=O)C1CCN(C(=O)C2CC2)CC1 (stereo not drawn)	inconclusive: 22.4 µM [inhibitor, single point]
Cc1ccc(C2Cn3cnc(C(=O)N4CCC(C(=O)NCc5ccc(F)cc5)CC4)c3CO2)cc1 (stereo not drawn)	inactive
CCOC(=O)C1CCC(CN(Cc2ccc(Cl)cc2)S(=O)(=O)c2ccc(Br)cc2)CC1 (stereo not drawn)	inconclusive: 22.4 µM [inhibitor, single point]
c1cnc2cc(-c3nc(C4CCOC4)no3)ccc2n1 (stereo not drawn)	inactive
Cc1cc(-c2cnc3n[nH]c(-c4ccccc4)c3n2)ccn1	inconclusive: 20 µM [inhibitor, full curve, poor fit]
